# Variants at the floor of the assay are shown more often than the library holds them.
# B1: TPR 5TU (parent)
# chain: GGAUCUUCUCGAUCUAACAAAAAAGACAAAUCUGCCACAAAGCUUGAGAGCAUCUUCGGAUGCAGAGGCGGCAGCCUUCGGUGGCGCGAUAGCGCCAACGUUCUCAACUAUGACACGCAAAACGCGUGCUCCGUUGAAUGGAGUUUAUCAUG
# Variants of: B1
# Experiment: polymerase ribozyme fitness, log enrichment relative to wild type (log ratio); higher = more active; in vitro selection for triplet polymerase activity
# How it was run: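 Frozen incubation at −7 °C formed the core of a single, triplicate in vitro selection round applied to PCR-built, transcribed mutant libraries of each subunit of a heterodimeric triplet polymerase ribozyme. Extended constructs were gel-excised, captured with streptavidin beads and amplified by RT-PCR, and input and output libraries were Illumina-sequenced with a filter of ≥10 input reads and ≥1 read per output. Fitness is the logarithm of genotype enrichment relative to wild-type enrichment, with inverse-variance-weighted replicate averaging, and the logarithm is base 2.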
row,Variant,polymerase ribozyme fitness (log ratio)
1,C27G C85G G88A G100C U148G,≤ -4.2
2,C27G C85U G94C U139G,≤ -4.2
3,C27G C87U A97U C99G,≤ -4.2
4,C27G C96G A106G C131G,≤ -4.2
5,C27G C103A A138U U144G U151C,≤ -4.2
6,C27G C105A C114A A119G,≤ -4.2
7,C27G G34U G48U U53C C79G C93G G136U G152U,≤ -4.2
8,C27G G42A C51A C87G A91G G112A,≤ -4.2
9,C27G G42U G92C,≤ -4.2
10,C27G G48A C99G,≤ -4.2
11,C27G G48A U55A G74A C76G U78G G83U C85G C96A,≤ -4.2
12,C27G G50C A91U G100C U134G G136U G143A,≤ -4.2
13,C27G G50U C57A G86U C87A C93G,≤ -4.2
14,C27G G58C G86A C105A U144A,≤ -4.2
15,C27G G58C G92A U102G C131G A150U,≤ -4.2
16,C27G G59C G92A C95G C105G,≤ -4.2
17,C27G G62A A64G A73C G88U C99U A107U G124A U130C U148A,≤ -4.2
18,C27G G62C U90A G92U C96U U101C A120C C129G G140C,≤ -4.2
19,C27G G68U C76G A120C U145C,≤ -4.2
20,C27G G71U C72A C95U,≤ -4.2
21,C27G G80A G81C,-4.11

row,Variant,polymerase ribozyme fitness (log ratio)
1,C27G G81C U151A,≤ -4.2
2,C27G G83A,-4.12
3,C27G G92C G143C U148G,≤ -4.2
4,C27G U44G C51A C57G G80C G100C U101G G140A,≤ -4.2
5,C27G U45A G48U U53A C75U A106U C131G U134C A137G,≤ -4.2
6,C27G U45A U61C G62C C96U G117A U127G,≤ -4.2
7,C27G U53A C54A C93G,≤ -4.2
8,C27G U53A G94C C103A A107U C149G,≤ -4.2
9,C27G U53G C95U G100A,≤ -4.2
10,C27G U55A A73G U77A C87A A142U,≤ -4.2
11,C27G U55A C75G C87A G94U,≤ -4.2
12,C27G U56A C79A G88C C93A U102G,≤ -4.2
13,C27G U56G,≤ -4.2
14,C27G U61G U78G G92U,≤ -4.2
15,C27U A28G G50A,≤ -4.2
16,C27U A28U C76U U78G C93G A119G,≤ -4.2
17,C27U A28U U56G C105U C108G C118A,≤ -4.2
18,C27U A29G C36U C54A C76A C95G U109G A110C,≤ -4.2
19,C27U A29U A41G U61A U148G,≤ -4.2
20,C27U A29U U44A U56A C79A C87G G94A G100C U146G U151G,≤ -4.2
21,C27U A30G U56A G94C G126U A137C,≤ -4.2

row,Variant,polymerase ribozyme fitness (log ratio)
1,C27U A37C G59U G92C G117C,-3.65
2,C27U A37G G58C G68A G70U C87A C103U A115U,≤ -4.2
3,C27U A39U U53A C93U,≤ -4.2
4,C27U A40C C43G G71C C85U C114U G152U,≤ -4.2
5,C27U A40C U53A C72U C93U G94A A122G,≤ -4.2
6,C27U A40G A66U C76U C93U,≤ -4.2
7,C27U A40U G59U A107G C116A,≤ -4.2
8,C27U A41C C95U C125U,-2.83
9,C27U A41G U44C C54G C95U A97U,≤ -4.2
10,C27U A41U U77G U78G G84A A89C C93A,≤ -4.2
11,C27U A47C C85U A107G C114U A122U G136C,≤ -4.2
12,C27U A47C G86A G88U G92A U144C,≤ -4.2
13,C27U A47U U55A G88C,≤ -4.2
14,C27U A49C,≤ -4.2
15,C27U A49C C72U G80U,≤ -4.2
16,C27U A49C C87U G92A,≤ -4.2
17,C27U A49C G59A,≤ -4.2
18,C27U A49G G86U A97U C105A,≤ -4.2
19,C27U A49U C129G,≤ -4.2
20,C27U A52G A66C C76G G84U C95G G140U,≤ -4.2
21,C27U A52G C105G G141C,≤ -4.2

row,Variant,polymerase ribozyme fitness (log ratio)
1,C27U A60G U90G G117A A150G,≤ -4.2
2,C27U A64C A73U U101C C118G U148C,≤ -4.2
3,C27U A64C C85U U130A A137U U146A,≤ -4.2
4,C27U A64U C87U G88A C93G,≤ -4.2
5,C27U A66G C75A G86U G100C A121U A150C,≤ -4.2
6,C27U A91U A113U C125G A138G,≤ -4.2
7,C27U A120G C125A,-1.81
8,C27U C32A G46U A47C U53A C87G,≤ -4.2
9,C27U C32A U53C C75U C87A C114U A120U U130G C149U,≤ -4.2
10,C27U C32U C35A G86C G141C,≤ -4.2
11,C27U C35A A37C C51U U127A,≤ -4.2
12,C27U C35A A60C,≤ -4.2
13,C27U C35U G46A G80A C85A,≤ -4.2
14,C27U C43A U101G C118A,≤ -4.2
15,C27U C43U C79G C93A,≤ -4.2
16,C27U C43U C85U U90C A97U A142C,≤ -4.2
17,C27U C51U A52C U90C C95U C108G C129G U139A U144G,≤ -4.2
18,C27U C51U G83A,-2.56
19,C27U C57U G94A C95A G143A,≤ -4.2
20,C27U C63U C76U G81C U101G U146G,-3.39
